In the RNAGym collection of RNA variant scans (doi:10.1093/nar/gkz1192):
Read counts are not given, so values of variants with three or more changes are uncertain.

B1: CPEB3 Ribozyme (parent)
chain: UAACAGGGGGCCACAGCAGAAGCGUUCACGUCGCAGCCCCUGUCAGAUUCUGGUGAAUCUGCGAAUUCUGCUGUAUAUCUC

Variants of: B1
Assay: self-cleavage, relative activity (ratio to wild type); higher = more cleavage; in vitro, sequencing
Summary of the method: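 Relative activity was defined as the cleaved/total read fraction for a variant divided by the same fraction for the unmutated ribozyme. CPEB3 self-cleaving ribozyme libraries were made by rounds of error-prone PCR, barcoded, and transcribed in vitro with T7 RNA polymerase for 5 hours at 37°C, and cleavage ran through transcription plus a 15 min DNase I step before EDTA. Illumina sequencing of template-switched reverse transcripts gave the reads, and DNA sequencing mapped the barcodes. Averages come from three batches, using variants with at least 5 reads.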

Variant | self-cleavage
ACACAGGGGGCCACAGCAGAAGCGUUCACGUCGCAGUCCCGGUCAGAUCCUGGUGAAUCUGCGAAUUCUGCCGUAUAUCCC | 0.27
AGACGGGGGGCCACAGCAGAAGCGUUCACGUCGCAGCCCCUGACAGAUUCUGGCGAAUCUGCGAAUUCUGCUGUAUAUCUC | 0.75
AGACAGGGGGCCUCAGCAGAAACGUUCACGUCGCAGCCCCUGUCAGAUUCUGGUGAAUCUGCGAAUCCUGCUGCAUAUCUC | 0.08
AGACAGGGGGCCACGGCAGAAGCGUACACGUCGCAGCCCCUGUCGGAUUCUGGAGAAUCUGCGAAUUCUGCUGUGUAUCUC | 0.19
AGACAGGGGGCCACAGCAGAGGCGUUCACGUCGCAGCCCCUGUCAGGUUCUGGUGAAUCUGCGAGUUCUGCUGCAUAUCUC | 0.15
AGACAGGGGGCCACAGCAGAAGCGUUCCCGUCGCAGCCCCUGCCAGAUUCUGGUGAAUCUGCGAAUUCUGCUGUAUAGCUC | 0.25
AGACAGGGGGCCACAGCAGAAGCGUUCGCGUCGCAGCCCCAGUCGGAUUCUGGUGAAUCUGCGAAUUCUGCUGUAUAUCUC | 0.56
AGACAGGGGGCCACAGCAGAAGUGUUCACGUCGCUGCCCCUGUCAGAUUCUGGUGAAUCUGCGAAUUCUGCUGUAUAUCUC | 0.27
AGACAGGGGGCCACAGCAGAAGCGUUCACGUCGCAGCGCCUGACAGAUUCUGGUGAAUAUGCGAAUUCUGCUGUAUUUCUC | 0.46
AGACAGGCGGCCGCGGCAGAAGCGUUCACGUCGCAGCCCCUGGCAGAUACUGGUGAAUCUGCGAAUUCUGCUGUAUAUCUC | 0.73
AGACAGGGGGCCACAGCAGAAGCGCUCACGUCGCAGCCCCUGUCAGAUUCUGGUGAAUCUGCGAAUCCUGCUGUAUAUCCC | 0.07
AGACAGGGGGCCACAGCAGAAGCGGUCACGUCGCAGCCCCUGUCAGAUUCUGGUGAAUCUGCGAAUCCAGCUGUAUAUCUC | 0.21
AGACAGGGGGCCACAGCAGAAGCGUUCACGUCGCAGCCCCCGUCAGAUUCUGGUGAAUCUGCGAAUUCUGCCGUAUAUCUC | 1.1
AGACAGGGGGCCACAGCAGAAGCGUUCACGUCGCAGCCCCUGUCAGAUUCUGGGGAAUCUGCGAAUUCUGCUGUAUAUCUC | 0.5
AACCAGGGGGCCGCUGCAGAAGCGUUCACGUCGCAGCCCCUGUCAGAUUCCGGGGAAUCCGCGAAUUCUGCUGUAUAUCUC | 0.73
AACCAGGGGGCCACUGCGGAAGCGUUCACGUCGCAGCCCCUGUCAGAUUCUGGUGAAUCAGCGAAUUCUGCUGUAUAUCUC | 0.56
AACCAGGGGGCCACUGCAGAGGCGUUCGCGUCGCGGCCCCUGUCAGAUUCUGGUGAAUCUGCGAAUUCUGCUGUAUAUCUC | 0.81

Variant | self-cleavage
AACCAGGGGGCCACAGCGGAAGCGUUCACGUCGCAGCCCCUGUCAGAUUCUGGUGUAUCUGCGAAUCCUCCUGUAUAUCUC | 0.29
AACAAGGGGGCCUCAGCAGUAGCGUUCACGUCGCAGCCCCUGUCAGAUUCUGGUGAAUCUGCGAAUCCCGCUGUAUAUCUC | 0.27
AACCAGGGGGCCACAGCAGAAACGUUCACGCCGCAGCCCCUGUCAGAUUCUGGUGGAUCUGCGAAUUCUGCUGUAUAUCUC | 0.08
AACCAGGGGGCCACAGCAGAAGCGUUCACGUCGCAGCCCCGGUCAGUUUCUGGUGAAUCUGCGAAUUCUGCUGUAUAUCUC | 0.4
AACCAGGGGGCCACAGCAGAAGCGUUCACGUCGCAGCCCCUGUCAGACUCUGGGGAAUCUGCGAAUUCUGCUGUAUAUCUC | 0.67
AAGCAGGGGGCCACGGCAGAAGCGUUCACGUCGCAGCCCCUGCCGGAUUCUGGUGAAUCUGCGAGUUCUGCUGUAUAUCCC | 0.2
AAGCAGGGGGCCACAGCAGUAGCGUCCACGUCGCAGCCCCUGUCAGUUUCUGGUGAAUCUGCGAAUUCUGCCGUAUAUCUC | 0.29
AAGCAGGGGGUCACAGCAGAAGCGCUCACGUCGCAGCCCCUGUCAGAUUCUGGUGAAUCUGCGAAUUCUGCUGUAUAUCUC | 0.38
AAGCAGGGGGCCACAGCAGAAGCGUUCACGUUGCAGCCCCUGUCAGAUUCUGGUGAAUCUGCGAAUUCUGCUGUAUAUCUC | 0.37
AAGCAGGGGGCCACAGCAGAAGCGUUCACGUCGCAGCCCUUGUCAGAUUCUGGUGAAUCUGCGAACUCUGCUGUAUAUCUC | 0.13
AAGCAGGGGGCCACAGCAGAAGCGUUCACGUCUCAGCCCCUGUCAGAUUCAGGUGAAUCUGCCAAUUCUGCUGUGUAUCUC | 0.14
AAGCAGGGGGCCACAGCAGAAGCGUUCACGUCGCAGCCCCUGUCAGAUUCUGCUGAAUCUGCGAAUUCUGCCGUAUAUCUC | 1.51
AAGCAGGGGGCCACAGCAGAAGCGUACACGUCGCAGCCCCUGUCAGAUUCAGGUGAAUCUGCGAAUUCUGCUGUAUAUCAC | 1.12
AAGCAGGGGGCCACAGCAGAAGCGUUCACGUCGCAGCCCCGGUCAGAUUCCGGUGAAUCUGCGAAUUCUGUUGUAUACCUC | 0.28
AAUCAGGGGGCCACGGCAGAAGCGUUCACGUCGCUGCCCCUGUCAGAUUCUGGUGAAUCCGCGAAUUCUGCUGUAUAUCCC | 0.5
AAUCAGGGGGCCACAGCAGGAGCGUUCACGCCGCAGCCCCUGUCAGGUUCUGGUGAAUCUGCGAAUUCUGCUGUAUAUCUC | 0.85
AAUCAGGGGGCCACAGCAGAAGCGUUCACGUCGCAGCCCCUGUCGGAUUCUGGUGAAUCUGCGAAUCCUGCUGUAUAUGCC | 0.56
